Structures are written as SMILES. In all, about 310,000 compounds went through this assay and about 2,200 (0.71%) showed an effect of 50% or more. The effect is printed as a negative number. The list shows a part of the results.

From article PMC4336329 (PLoS ONE, 2015) come the findings set out here.

For the test, the target named is human ether-à-go-go-related gene (hERG) potassium channel (human, UniProt Q12809). The test is described as follows: primary screen, population patch clamp on CHO cells stably expressing hERG.
human ether-à-go-go-related gene (hERG) potassium channel, sequence (Q12809 whole entry, looked up): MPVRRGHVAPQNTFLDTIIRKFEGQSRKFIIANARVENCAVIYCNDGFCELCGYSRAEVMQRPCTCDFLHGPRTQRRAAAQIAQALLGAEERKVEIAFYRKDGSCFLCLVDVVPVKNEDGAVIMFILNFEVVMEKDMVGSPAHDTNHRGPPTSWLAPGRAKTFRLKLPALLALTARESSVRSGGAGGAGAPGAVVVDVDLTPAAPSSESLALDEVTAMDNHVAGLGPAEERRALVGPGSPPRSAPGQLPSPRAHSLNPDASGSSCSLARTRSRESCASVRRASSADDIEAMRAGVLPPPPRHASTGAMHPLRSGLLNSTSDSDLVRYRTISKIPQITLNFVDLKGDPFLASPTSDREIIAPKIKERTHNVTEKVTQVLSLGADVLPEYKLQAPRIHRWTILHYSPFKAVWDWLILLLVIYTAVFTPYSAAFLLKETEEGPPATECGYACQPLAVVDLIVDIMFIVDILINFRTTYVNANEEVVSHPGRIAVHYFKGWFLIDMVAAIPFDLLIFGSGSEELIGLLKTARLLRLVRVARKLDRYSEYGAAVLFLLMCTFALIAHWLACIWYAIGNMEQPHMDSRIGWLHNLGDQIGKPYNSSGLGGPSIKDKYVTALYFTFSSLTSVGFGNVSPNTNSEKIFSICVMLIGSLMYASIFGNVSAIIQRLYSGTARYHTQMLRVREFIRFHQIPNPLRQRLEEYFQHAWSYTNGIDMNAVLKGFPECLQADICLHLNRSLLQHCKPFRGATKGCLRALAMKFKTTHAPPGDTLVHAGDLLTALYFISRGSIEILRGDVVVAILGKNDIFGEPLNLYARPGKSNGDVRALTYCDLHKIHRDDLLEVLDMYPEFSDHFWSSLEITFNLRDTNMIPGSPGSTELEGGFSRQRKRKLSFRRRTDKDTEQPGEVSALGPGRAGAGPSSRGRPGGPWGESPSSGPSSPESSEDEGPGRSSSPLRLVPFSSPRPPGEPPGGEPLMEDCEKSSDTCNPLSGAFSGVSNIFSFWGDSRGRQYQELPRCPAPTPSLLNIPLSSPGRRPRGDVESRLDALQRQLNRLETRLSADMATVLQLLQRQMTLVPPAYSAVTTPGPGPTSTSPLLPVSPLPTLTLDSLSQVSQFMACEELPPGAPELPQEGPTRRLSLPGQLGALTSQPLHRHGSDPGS
Turning to `COc1ccc(-c2cc(C(=O)NC3=NCCS3)c3ccccc3n2)cc1OC`, the “hERG current change (%, negative = inhibition) at 1uM” value amounted to 8.46%.
Consider `CNC(=O)C(=O)NCCN1CCN(S(=O)(=O)c2ccc3ccccc3c2)CC1`, for which the “hERG current change (%, negative = inhibition) at 1uM” value is 22.5%.
For the molecule `COc1ccc(OC)c(S(=O)(=O)N2CCCC(C(=O)NCc3ccncc3)C2)c1` (stereo not shown), the “hERG current change (%, negative = inhibition) at 1uM” value was 18.4%.
In the case of `O=C(O)CCCNS(=O)(=O)c1ccc(Br)s1` it was 1.81%; in that of `CCN(CC)S(=O)(=O)c1ccc2nnn(OCC(=O)Nc3cccc(C#N)c3)c2c1`, 6.92%; in that of `CCc1cc2c(-c3ccccc3)cc(=O)oc2c(CN2CCOCC2)c1O`, 14.5%.
For `Nc1cc(=O)[nH]c(SCc2nc3ccccc3n2Cc2ccccc2)n1`, the “hERG current change (%, negative = inhibition) at 1uM” value was -10.8%.
The result for `O=C(Nc1ccccc1C(=O)NCCCn1ccnc1)c1ccc(Cl)cc1Cl` reads -12.3%; that for `CCOc1ccc(C(=O)/C=C/Nc2ccc(S(=O)(=O)N=C(N)N)cc2)cc1`, 12.8%; that for `CCOc1ccc(NC(=S)N2CCC(NC(=O)c3ccco3)CC2)cc1`, 13.2%.
Consider `Cc1ncc(C23CC4CC(CC(C4)C2)C3)[nH]1`, for which the “hERG current change (%, negative = inhibition) at 1uM” value came out at 13.8%.
In the case of `Cc1c(CC(=O)N2CCN(C(=O)C3COc4ccccc4O3)CC2)c(=O)oc2c(C)c(O)ccc12` (stereo not shown) it was -3.63%.
In the case of `Cc1ccc(S(=O)(=O)NCCNC(=O)c2cc(OCC(F)(F)F)ccc2OCC(F)(F)F)cc1`, the “hERG current change (%, negative = inhibition) at 1uM” value came out at 9.58%.
The result for `COc1cc(/C=N/n2nnnc2N)cc(Cl)c1OC` reads 10.4%.
The result for `CN(CCOc1ccccc1)CC(=O)Nc1ccc(Br)cc1F` reads 9.2%; that for `COc1cc(NC(=O)c2cc([N+](=O)[O-])ccc2NC(=O)CN2CCN(c3ccccn3)CC2)cc(OC)c1`, 1.59%; that for `Cc1ncc(CO)c(CNc2ccc(-c3nc4ccccc4[nH]3)cc2)c1O`, 12.9%.
For `Cc1ccc(S(=O)(=O)N2CCN(C(=O)CSc3ccc(Cl)cc3)CC2)cc1`, the “hERG current change (%, negative = inhibition) at 1uM” value is listed as 15.5%.
Turning to `COc1ccccc1OCC(=O)NCC(C)NC(=O)COc1ccccc1OC` (stereo not shown), the “hERG current change (%, negative = inhibition) at 1uM” value is given as 9.89%.
The result for `COc1ccc(S(=O)(=O)NCCSCc2cccs2)cc1` reads 1.54%; that for `COc1ccc(Br)cc1CN(C)C(=O)c1ccncc1`, 9.93%.
As to `CCn1c(SCC(=O)Nc2cccc(F)c2)nnc1-c1cc2cc(Br)ccc2o1`, the “hERG current change (%, negative = inhibition) at 1uM” value was found to be 17.8%.
In the case of `Cc1cccc(Nc2nc(-c3ccc(O)cc3O)cs2)n1` it was 11.2%.
The result for `C=CCNc1nc2ccccc2c(=O)[nH]1` reads 10.3%; that for `CC(=O)n1cc([C@H]2C=C(C(=O)NCc3ccccc3)O[C@@H](OCc3ccc(CO)cc3)C2)c2ccccc21`, 11.8%; that for `O=C(CCC(F)(F)F)N1CCCC(N2CCN(c3cccc(Cl)c3)CC2)C1` (stereo not shown), -15.6%.
In the case of `CCCOc1ccc(CSCCNC(=S)Nc2ccccc2)cc1` it was 10.7%; in that of `COC(=O)CC1=C(C(=O)OC)C2(C(=O)N(C)c3ccccc32)C(C#N)=C(N)O1` (stereo not shown), 13.1%; in that of `CC(C)C(NC(=O)c1ccco1)C(=O)OCC(=O)NCCc1ccccc1` (stereo not shown), 19.2%.
Regarding `Cc1ccc(F)cc1NC(=O)c1c(-c2ccccc2)noc1C`, the “hERG current change (%, negative = inhibition) at 1uM” value is reported as 8.76%.
In the case of `O=C(Nc1ccc(S(=O)(=O)N2CCCCCC2)cc1)c1c(F)cccc1F` it was 9.45%; in that of `CCOc1ccc(NS(=O)(=O)c2ccc(C(=O)NCC(c3cccs3)N3CCOCC3)cc2)cc1` (stereo not shown), -2.65%; in that of `CC(C)COP(=O)(c1ccc(N(C)C)cc1)C(Nc1ccccc1)c1cccnc1` (stereo not shown), 4.07%.
In the case of `O=C(NC1CCCCC1)Oc1cc2oc(=O)sc2cc1Br` it was 11.5%.
In the case of `CCOC(=O)CSC1=C(C#N)C(c2ccc(C)cc2)C(C(=O)OC)C(=O)N1` (stereo not shown) it was 14.4%; in that of `Cc1ccc(N2CCN(C(=O)c3cccs3)CC2)c(C)c1`, -0.116%; in that of `Cn1c(=O)c(NCCc2ccccc2)c2c3c(cccc31)C(=O)c1ccccc1-2`, 9.08%.
In the case of `Cc1ccc(S(=O)(=O)NCc2ccc(C(=O)NCc3cccnc3)cc2)cc1`, the “hERG current change (%, negative = inhibition) at 1uM” value stood at 12.4%.
As to `CN1CCCc2cc(C#N)c(=O)[nH]c21`, the “hERG current change (%, negative = inhibition) at 1uM” value is reported as -2.17%.
For the molecule `Cc1ccc(Cl)cc1NC(=O)NCc1ccccn1`, the “hERG current change (%, negative = inhibition) at 1uM” value came to 8.39%.
In the case of `Cc1cccc(NC(=O)CSc2nnc(-c3n[nH]c4ccccc34)o2)c1` it was 6.6%.
In the case of `N#Cc1ccccc1N=Cc1ccc(Br)cc1` it was 10.3%; in that of `CC1CCCC(NC(=O)COC(=O)c2ccccc2Sc2ccccc2C#N)C1C` (stereo not shown), -0.154%.
With `CCn1c(-c2nn(C)cc2Cl)n[nH]c1=S`, the “hERG current change (%, negative = inhibition) at 1uM” value was 17.7%.
In the case of `CCCCNC(=O)NNC(=O)c1cc(C)on1` it was 9.97%.
The result for `COC(=O)COc1cccc(NS(=O)(=O)c2cccc([N+](=O)[O-])c2)c1` reads 20.2%.
In the case of `Cc1ccc(OCC(=O)N(Cc2ccc(N(C)C)cc2)C2CCS(=O)(=O)C2)cc1` (stereo not shown), the “hERG current change (%, negative = inhibition) at 1uM” value amounted to 12.8%.
In the case of `COc1ccc(NC(=O)Nc2ccc(C(C)C)cc2)cc1` it was 12.4%; in that of `CCCCc1ccc(S(=O)(=O)NCCc2ccncc2)cc1`, -6.17%; in that of `Cc1cc(NC(=O)c2cncc(Br)c2)ccc1NC(=O)c1cc2ccccc2o1`, 5.92%.
The result for `CCN/C=C(\C#N)S(=O)(=O)c1ccc(Br)cc1` reads 10.3%.
The result for `CCC(C)[C@H](N)c1nnc(SCC(=O)c2ccc(Cl)cc2)o1` (stereo partly shown) reads -16.1%; that for `COc1ccc(S(=O)(=O)Cc2ccc(C(=O)N3CCN(c4ccccc4)CC3)o2)cc1`, -9.91%.
For `O=C(CNc1ccc(Br)cc1)Nc1cccc(S(=O)(=O)N2CCCC2)c1`, the “hERG current change (%, negative = inhibition) at 1uM” value was -8.73%.
The result for `COC(=O)C(C)(C)ONC(=O)Nc1ccccc1[N+](=O)[O-]` reads 1.19%.
As to `CN(C)P(=NC(=O)COc1ccc(Cl)cc1Cl)(N(C)C)N(C)C`, the “hERG current change (%, negative = inhibition) at 1uM” value was 3.78%.
In the case of `Cc1ccc(Cl)cc1Nc1nc(-c2cccnc2)cs1` it was 19.9%.
Regarding `Cc1ccc(S(C)(=O)=NC(=O)c2cc(C)on2)cc1` (stereo not shown), the “hERG current change (%, negative = inhibition) at 1uM” value amounted to 11.7%.
The result for `O=C1c2ccccc2-c2onc3ccc(NCCCn4ccnc4)c1c23` reads 0.591%; that for `COC(=O)Cn1c2nc3ccccc3nc2c2cccc(C)c21`, 12%.
Take `Cn1c(=O)n(CCc2ccccc2)c(=O)c2c1nc1n2CCCN1Cc1ccccc1`: the “hERG current change (%, negative = inhibition) at 1uM” value is given as 15.6%.
In the case of `O=[N+]([O-])c1c(Nc2ccc(O)cc2)cc(N2CCOCC2)c2nonc12` it was 5.35%.
Consider `CC(=O)Nc1ccc(NC(=S)NC(=O)/C=C/c2ccco2)cc1`, for which the “hERG current change (%, negative = inhibition) at 1uM” value is 8.97%.
`Nc1nc(C2CC(=O)OC23CCCCC3)cs1` (stereo not shown): the “hERG current change (%, negative = inhibition) at 1uM” value amounted to 12.5%.
In the case of `CCN1CCN(CCCN(Cc2cccs2)C(=S)Nc2ccccc2C)CC1` it was -10.4%; in that of `O=C(NCCNC(=O)C(c1ccccc1)c1ccccc1)c1ccco1`, 23.6%.
`O=C(Cn1c(=O)n(CC2CS2)c2ccccc21)N1CCCCC1` (stereo not shown): the “hERG current change (%, negative = inhibition) at 1uM” value is 6.6%.
The result for `CCC(c1nnc(SCC(=O)Nc2cc(C)on2)o1)N(C)C` (stereo not shown) reads 16.1%.
In the case of `CC1CCCN(S(=O)(=O)c2cccc(-c3cn4cccnc4n3)c2)C1` (stereo not shown) it was -4.53%; in that of `O=C1[C@@H]2Cc3c([nH]c4ccccc34)C(c3ccccc3)N2C(=O)CN1C1CC1` (stereo partly shown), 21.8%; in that of `CCCn1c(SC(C)C(=O)N2CCOCC2)nc2ccc(Br)cc2c1=O` (stereo not shown), -6.54%.
In the case of `Cc1cc2nc(-c3ccc(SCC(=O)N4CCc5ccccc54)nc3)[nH]c2cc1C` it was 0.234%; in that of `O=c1cc(-c2ccc(O)cc2)oc2cc(O)cc(O)c12`, 3.03%; in that of `Cc1cc(C)cc(CSCC(=O)N/N=C/c2ccc(OCC(=O)NCc3ccco3)cc2)c1`, -0.66%.
As for `Cc1nnc2c(N3CCN(C(=O)c4ccco4)CC3)nc3ccccc3n12`, the “hERG current change (%, negative = inhibition) at 1uM” value was determined as 2.18%.
In the case of `COc1cccc(CNC(=O)C2CCN(Cc3cnn(-c4ccccc4)c3-n3cccc3)CC2)c1` it was -44.3%; in that of `Nc1ccc(S(=O)(=O)Nc2ccnn2-c2ccccc2)cc1`, 5.31%.
The result for `CN(Cc1ccccc1F)c1ncnc2sccc12` reads 12.7%; that for `COC(=O)C1=C(c2c(C)noc2C)C[C@@H]2CC[C@H]1N2C(=O)N1CCc2cc(OC)c(OC)cc2C1`, 9.99%; that for `CN(C)C(=O)Nc1ccccc1CC[N+](=O)[O-]`, 11.5%.
For `O=C(COC(=O)Cn1nc(-c2ccccc2)oc1=O)Nc1ccc(F)cc1`, the “hERG current change (%, negative = inhibition) at 1uM” value turned out to be 8.8%.
With `Nc1nc2n(n1)C(c1cccs1)CC(c1ccc(Br)cc1)N2` (stereo not shown), the “hERG current change (%, negative = inhibition) at 1uM” value is listed as -2.98%.
Consider `O=C(NNS(=O)(=O)c1ccccc1)C1CCCCC1`, for which the “hERG current change (%, negative = inhibition) at 1uM” value is recorded as 9.27%.
In the case of `COC(=O)CCC(=O)NNC(=O)C1CC1(c1ccccc1)c1ccccc1` (stereo not shown) it was 11.7%.
The result for `COc1ccc(C)cc1-n1nnnc1SCc1nc2ccccc2c(=O)[nH]1` reads 1.9%; that for `CC(C)c1ccc(-n2c(O)c(C=NC(CCS(C)=O)C(=O)O)c(=O)[nH]c2=S)cc1` (stereo not shown), 13.9%.
The result for `CN(CCc1ccccn1)C(=O)CCC1CCCN(C(=O)c2c(F)ccc(F)c2F)C1` (stereo not shown) reads 9.95%; that for `CCn1c(C)nc2cc(C(=O)NNS(=O)(=O)c3ccc(C)cc3C)ccc21`, -3.67%.
